We go through 167 variants from the RNAGym collection of RNA variant scans (doi:10.7554/elife.90254).

Sequences and labels used below:
B1: LINE1-full (parent)
chain: UACGUAGGUGGUUUUCCCCUGAUAGUGCUAAGGGGGCCUGGAAGUUUGGACUGGGCAGAGCUCAACACAGCGUGGCAAAGUGGCUGUGGCUAGACUGCCUCUCUGGAUUCCUCGUCACUCAGCAGGGCAUCUCUGAGAGAAAUGCC

The source gives no read counts; variants with many changes may rest on few reads.

In the series the parent is B1. Nature of the series: self-cleavage, relative activity (ratio to wild type); higher = more cleavage; in vitro, sequencing; the parent is a self-cleaving ribozyme.
With U12C C111U U132C, the self-cleavage amounted to 2.
With U12C A24G U45C, the self-cleavage came to 1.31.
Take G10U G74A U85C A140G: the self-cleavage is 0.08.
On to G11A U45C U47C G58U, for which the self-cleavage was determined as 0.04.
On to G10A U20A U47C, for which the self-cleavage amounted to 1.11.
U9C U45C A59U G125A: the self-cleavage came out at 0.65.
As for U9C U13C U47A A94C A107G A142G, the self-cleavage is 0.
Next, U12A A65G A77G: 0.
Regarding U9C U102C A117C, the self-cleavage worked out at 2.63.
On to U9C U52C U62A A79G A142G, for which the self-cleavage was determined as 0.09.
Regarding G11A A64G A79G A117G A140U, the self-cleavage came to 0.73.
On to U9C U23C G36A U132C U134A C145U, for which the self-cleavage is 0.89.
Regarding U12C A79G C123A, the self-cleavage was found to be 1.14.
Consider U12C A22G U39A A50G U96C, for which the self-cleavage worked out at 0.
On to U12C C111U A138U, for which the self-cleavage was 1.35.
As to G10A U14C U52C, the self-cleavage amounted to 1.13.
Next, U12C A65G C99A A121G: 0.
In the case of U9C U15C U104C, the self-cleavage turned out to be 1.38.
Consider U12C G86A A117G A141G, for which the self-cleavage turned out to be 0.
Next, U9C U26A U62C U96C U100A A107G: 0; U12C A42G U119A: 0.23.
U12C G34A U119A: the self-cleavage was determined as 1.58.
Next, G11A U26C U39A: 0.58; U12A A31C G139A: 1.42.
With U9C U14A A77G the figure was 1.6; with G11C A30G U47C A77G, 0.66.
As to G11A U12G U45C, the self-cleavage came out at 1.19.
For the variant U9G U15C C99U, the self-cleavage was determined as 0.56.
U9C U81A U91A A94G A142G: the self-cleavage was 0.63.
With U9C U15A U29C the figure was 0.
Consider U12C A69C A142G, for which the self-cleavage was found to be 0.
G10A U23C A31G C99A U143C: the self-cleavage was determined as 0.61.
Take U12A U15C U39C C76U U96C: the self-cleavage worked out at 0.22.
U9G A65G U87C A117U C133A A141G U143C: the self-cleavage amounted to 0.
Regarding U12C G86U A141G, the self-cleavage worked out at 0.32.
On to U12C A69C A79G, for which the self-cleavage stood at 0.31.
As to U9C U29C G32C G88A, the self-cleavage amounted to 0.29.
U12C A59G A107G C113U U132C: the self-cleavage is 0.
Regarding U12C A57G U62A U108C A136C, the self-cleavage was found to be 0.
For U12A A42G U45C A94G, the self-cleavage was 0.
Take U9C U14C U100C A129U: the self-cleavage stood at 0.54.
On to U12A A31G U85C G93A, for which the self-cleavage stood at 0.32.
On to U12C A59G C90A, for which the self-cleavage was 0.07.
Turning to G11U U13G U62C, the self-cleavage worked out at 0.12.
With U12C A78G U87C, the self-cleavage amounted to 0.07.
With U12C A77G U102G A142G, the self-cleavage came to 1.15.
On to U12C A43G G53A C71U A78G, for which the self-cleavage is 0.17.
Take U12A A107C A136G: the self-cleavage came to 0.96.
Regarding U12A U14C U23A A78G, the self-cleavage came out at 0.31.
As for U12C G34A G54A, the self-cleavage was found to be 0.24.
With U9C U100C U104C A142G, the self-cleavage turned out to be 1.91.
On to U9C U85A A94G C110A U132C A141G, for which the self-cleavage stood at 0.07.
Take U12C A64G U87A U143C: the self-cleavage was found to be 0.15.
With U12C C18U U52C A59G A64G C71U C131G, the self-cleavage was determined as 0.38.
On to U12C A43U A65G G70A A77U, for which the self-cleavage turned out to be 0.1.
For the variant G10A A57U A67U U91C C99U, the self-cleavage amounted to 0.
Next, G10A U52A U73A G82A U132A: 2.12; U12A U46A U91A U102C A129G: 0.77.
With G10A C90G C120U U143C, the self-cleavage turned out to be 0.08.
As to U9G U46A U73G, the self-cleavage was 1.28.
For the variant U12C G21A U130C, the self-cleavage was 1.37.
As for U9C U20A U96A U119A, the self-cleavage was 0.27.
With U12A U62C U132C, the self-cleavage was determined as 0.18.
In the case of U12C A43G A67C U130C, the self-cleavage was determined as 0.49.
With G11A G33C U62C, the self-cleavage was 0.08.
Next, U12C G74A U91C: 0.91; U12A U20A U85C: 0.39.
As for U12C G53A A69G U104C, the self-cleavage is 0.3.
U12C C51U A78U G83U: the self-cleavage is 1.46.
On to U12C C71U A94G, for which the self-cleavage was determined as 0.12.
Consider U9C U14C C17U A24C A77G C120U C123U, for which the self-cleavage was 1.08.
With U12C A79G G144C the figure was 1.2.
For G11A U52C A77U A107U, the self-cleavage was 0.96.
As for U12C G34A U47A A140G, the self-cleavage stood at 1.08.
With U9C U29C G55A A78G C133U A140U, the self-cleavage came to 0.45.
Turning to U12A A42U A43G, the self-cleavage was 1.07.
Regarding G11A U46C U102A U108C U112A, the self-cleavage came out at 2.66.
Turning to U9C U23A U46C C95U, the self-cleavage is 0.44.
Regarding U12C A50G U85C U109A, the self-cleavage stood at 0.25.
On to U12C A24U G35A, for which the self-cleavage came to 1.01.
As to G11A A24G A59G, the self-cleavage was found to be 0.23.
Regarding U9C U96G G125C, the self-cleavage amounted to 0.
With G11A A30U U109C A141G the figure was 1.25; with U9C U20A U85A, 0.19.
As for U12C G70U U87C U104A, the self-cleavage worked out at 0.06.
Consider U12C G74C A121G A141G, for which the self-cleavage worked out at 1.8.
In the case of U9G A50U U96C, the self-cleavage was 0.
With G11A U20A U119C A138G the figure was 2.42; with U12C A77U U134C, 1.19; with U12C A79U U108A, 2.36.
For the variant U9C U26A U87C, the self-cleavage worked out at 0.24.
For the variant U9C U29C U109C, the self-cleavage came out at 0.97.
Turning to U12C A22G C38U U46C U91A A117U A140G, the self-cleavage amounted to 0.64.
Next, U12C A57U U119C A138U: 0.31.
Turning to G11C G34A U96C, the self-cleavage came out at 0.1.
Regarding U12A A43U U73C A107U C113A, the self-cleavage turned out to be 1.2.
With G10A U23C C68U A94G A121G, the self-cleavage was 0.05.
Take U12C G25U A69G A142G: the self-cleavage worked out at 0.48.
With U12C G82A A142G, the self-cleavage was determined as 1.75.
Consider G11A U91A A138G, for which the self-cleavage stood at 0.62.
With U9G G10U C56A, the self-cleavage is 0.12.
On to U12A C113U U130G, for which the self-cleavage stood at 1.26.
With U9C U47A A140G, the self-cleavage worked out at 1.73.
With U12C A59G A67U, the self-cleavage was 0.12.
Take U12C A59G U102C: the self-cleavage came out at 0.2.
Regarding U12C A69G A124G, the self-cleavage was 0.46.
As to U12A U85A C131U, the self-cleavage worked out at 0.21.
With G10A U87A U96C, the self-cleavage was 0.08.
As for U9C U29C A43G A124G, the self-cleavage came out at 1.58.
Turning to U12A A22G U45A U91A U112C U130A, the self-cleavage turned out to be 0.67.
Next, U12C G36A U47A U143A: 1.48; G11A U81A C84U A129G: 0.14.
With U12C A30G U39C U130C A136G the figure was 2.63; with U9G C19U U26C, 0.93; with G10A A31U U52A G82A, 1.43.
In the case of U12C A22G A79G A94G U143C, the self-cleavage was 2.12.
Consider U12A U47C U85C A138G U143C, for which the self-cleavage was found to be 0.38.
For the variant U9G U12A G35A A42U U62A A67G A107G U115A, the self-cleavage worked out at 0.16.
As for U12C A24G A78G U130C, the self-cleavage is 2.87.
For U9C U14C U143A, the self-cleavage is 1.53.
U12A A65G U104C U132C: the self-cleavage amounted to 0.
Next, G10A U12G A69G A142G: 0.6.
With U9C U52A U87C the figure was 0.73.
Next, U9C U26C A138U A141G: 1.13; U9C U26A U62A: 0.18.
As for U12C A57G G58C U73A G114A, the self-cleavage was determined as 0.03.
In the case of U12C A22G A121U U134C, the self-cleavage stood at 1.44.
With U12A G27U A43G the figure was 0.82; with G10A A43G U46C A65U A129G, 1.2.
Turning to U9C U15C U87C, the self-cleavage came to 0.14.
For U12C A65G U73C U104A, the self-cleavage turned out to be 0.
Take U9G U14C U45C C76U: the self-cleavage was found to be 0.82.
Take G10A U13C G21A U46C: the self-cleavage is 0.78.
Next, U9G A64U A129G C133U: 0.51; U12C A43G A77G U108C: 0.
With G10U U45C C56U the figure was 0.15; with U9C U26C U100C U132C, 1.2; with U9C U46C U52G, 1.12.
Regarding U12C A59U A64G U73C, the self-cleavage was found to be 0.21.
As for U9G U46A A64G U96A U115C U119A A138G, the self-cleavage worked out at 0.
Take G11A G97A U104A A121G: the self-cleavage came to 0.11.
With U9C U112C A136G the figure was 1.51; with U9C U39C U46A U119C G135U, 1.28.
Next, U9C U62C U143G: 0.1; U12C A77G U100C A136C: 1.25; U12C A30U U81A: 1.7.
On to G10A C56A U112C, for which the self-cleavage was determined as 0.03.
As for U12C A50U A59G U143A, the self-cleavage was determined as 0.24.
As for U12C C68U U102C, the self-cleavage was 0.25.
For U12C A57G G106A A142G, the self-cleavage was 1.14.
For the variant G10A A77G G135A, the self-cleavage turned out to be 1.91.
Regarding U12A A65G U100C C110A U132C, the self-cleavage stood at 0.18.
As for G10U A94G U102A G105A A124U, the self-cleavage amounted to 0.2.
Regarding U12A U73A U100C U115A, the self-cleavage was found to be 2.64.
As to U9C U15A G126U A141G, the self-cleavage amounted to 0.75.
Take U12C A79G A107U: the self-cleavage is 1.84.
On to U9C U96C A136G U143A, for which the self-cleavage was determined as 0.46.
For U12C A57U A136G A141C, the self-cleavage is 0.23.
Take G11C A31U U108C A124G: the self-cleavage was 2.12.
Next, G11U A30U A65G: 0; U9G U132C A142C: 0.96; U12A A42G U134C: 0.79.
In the case of U9C U15C A94G G97A, the self-cleavage came out at 0.12.
Take U12A G27A A64G U108C A129G: the self-cleavage was 1.15.
As to U9C U102C A121U A141U, the self-cleavage is 1.98.
Take U9C U13C U26A A43U A57U A65G U134C: the self-cleavage was found to be 0.
With U9G G11U U91C the figure was 0.87.
